Results taken from the supplement of paper PMC11417369.
± gives the standard deviation of the averaged measurements. This is one part of the list.

tested on: PfAP2-I AP2 domain 3 (GST-tagged); assay: gcPBM binding intensity (ln(normalized median fluorescence intensity)); higher = stronger DNA binding
In short: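 Binding intensity values are the highest Masliner-normalised natural-log median intensity among replicate spots of either probe orientation. The binding step lasted 1 h in 1× PBS with 1% milk, 0.2 mg/ml BSA, 0.5% salmon testes DNA and 0.03% Triton X-100, using GST-tagged P. falciparum DNA-binding domains expressed in E. coli on an Agilent 4 × 180k array of primer-extended double-stranded 36-bp intergenic genomic probes plus negative controls. Alexa488 anti-GST antibody and a 488 nm scan detected bound protein.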

Going from GGGGGAAGGTTGAAGGTGCTTGATGGAGAAAAATAT to “TTAATACATACATTCACACACACTAAATGTATATTT [CACACA_site4105]”, the “gcPBM binding intensity (ln)” value falls from 9.54 ± 0.15 to 7.79 ± 0.57.

“TAATCGTTTTATAAATGTACAAAATTGTTATGTTAT [XGTACX_site5147]” and “AATAGGATATGGTACATTTTTTGTATACTTTTTGTT [CACACA_negctrl_site1804]” are within error of each other in “gcPBM binding intensity (ln)” value: 7.66 ± 0.52 for the first, 7.62 ± 0.49 for the second.

Going from “AAACAAGTAATTGTTATTATTATTATATTATTATTA [CACACA_negctrl_site402]” to “ATAAATTCTATGTATACACACATATATAATATATAT [CACACA_site2689]”, the “gcPBM binding intensity (ln)” value rises from 7.18 ± 0.26 to 8.12 ± 0.47.

“AAAAAATAGAATATGGGTACTAAAAAGATACAAACA [XGTACX_site4464]” and “AAATTCGTAATAATGTGTACATAACTATACATAATT [XGTACX_site1717]” are within error of each other in “gcPBM binding intensity (ln)” value: 8.02 ± 0.73 for the first, 7.67 ± 0.38 for the second.

Compared with “ATTTATATGAAAATATGTACTTATATAAATTTATTT [XGTACX_site53]”, GATTATTTCTAAAAAGTGCATATTTAAAAATCTCCT is higher in “gcPBM binding intensity (ln)” value: 7.59 ± 0.36 for the first, 9.815 ± 0.035 for the second.

“TATTATATTATACATACACACCCATATAATATGTTT [CACACA_site8191]” and “ATTGTTTTGTAATATGAAAAAATTGTGTAATGTGTC [CACACA_negctrl_site1510]” are within error of each other in “gcPBM binding intensity (ln)” value: 8.12 ± 0.59 for the first, 8.18 ± 0.5 for the second.

Going from “AATATATAAGCTGTTCTATTCAAGAATTATATCTTA [CACACA_negctrl_site270]” to “AGAAGATTAAACATTGCACACAAAAACATATTTTCT [CACACA_site8072]”, the “gcPBM binding intensity (ln)” value rises from 7.25 ± 0.59 to 8.49 ± 0.4.

Going from “CAAAGGAAACCTATCTGTACACATATTGGGGGAAAA [XGTACX_site3502]” to “TGCCCTTTGGTTATAACACACATGCACCCGTAAATA [CACACA_site3842]”, the “gcPBM binding intensity (ln)” value rises from 8.77 ± 0.13 to 9.175 ± 0.078.

Going from ATATTTTATATAATAGTGCAAATAATATTAAATAAT to “ATTATAATATTTAATTGTACTTGTATTTATTCCAAA [XGTACX_site6417]”, the “gcPBM binding intensity (ln)” value falls from 10.8 ± 0.37 to 7.72 ± 0.33.

“AATAAATATATTAAAAGTACACAAATATTATTTAAT [XGTACX_site2482]” and “AAGATTAAACATTGCACACAAAAACATATTTTCTAT [CACACA_site530]” are within error of each other in “gcPBM binding intensity (ln)” value: 7.79 ± 0.36 for the first, 8.45 ± 0.46 for the second.

Compared with “AAAAAAAATATATTACAAAACTTAGGATCCTAATAT [CACACA_negctrl_site470]”, “CACATAAAATAAGGTGCATGCAAACGAGAAAATAAA [TGCATGCA_site75]” is higher in “gcPBM binding intensity (ln)” value: 7.43 ± 0.55 for the first, 9.5 ± 0.042 for the second.

First: ATATATATATAATAATGTACTTATAATAGATGTGTA [XGTACX_site4677]
Second: ATATATATATATATTTGTACTTACATTTTTATTTAT [XGTACX_site4551]
The “gcPBM binding intensity (ln)” value of the first is lower: 8.84 ± 0.085 for the first, 9.2 ± 0.23 for the second.

“AAAAATATAACCGTTACACACAAAATAATATGAGAA [CACACA_site3773]” and “ATAATAAGGTTAAGCACACATATTACATATATAACT [CACACA_site3356]” are within error of each other in “gcPBM binding intensity (ln)” value: 7.72 ± 0.66 for the first, 8.54 ± 0.28 for the second.

Compared with “GAACGATATATTATATGTACATATATATATATATAT [XGTACX_site394]”, TCGTTTCATAATATTGTGCACATATATATTTACAAT is higher in “gcPBM binding intensity (ln)” value: 9.32 ± 0.23 for the first, 10.8 ± 0.17 for the second.

Going from “CGTAAACGATATAAATGTACGAATATCTATATATTA [XGTACX_site8116]” to “TATATATTGCCCTTCACACACACACCGATATATATA [CACACA_site5390]”, the “gcPBM binding intensity (ln)” value rises from 7.39 ± 0.38 to 9.02 ± 0.2.

First: TTCTTTTAAAAATATATTTTAAGAAAATTTAATTTA [GTGCAC_negctrl_site237]
Second: GGATAAGAAAAGAAGTGTACATATATATATATATAT [XGTACX_site8290]
The “gcPBM binding intensity (ln)” value of the first is lower: 7.33 ± 0.33 for the first, 9.38 ± 0.37 for the second.

Going from “TTTATTTTTTGAAACACACACAAAAAAAATGATACA [CACACA_site1881]” to “ATAAAGCACACCGACACACACATATATATATATATA [CACACA_site1047]”, the “gcPBM binding intensity (ln)” value rises from 8.04 ± 0.33 to 9.96 ± 0.67.

CAAAAAAAAAAACGGGTGCTAAATTTTATTTTTTAT and “AAAAAAAAAATATATATATATATATATATATATATA [GTGCAC_negctrl_site467]” are within error of each other in “gcPBM binding intensity (ln)” value: 9.26 ± 0.4 for the first, 9.37 ± 0.23 for the second.

“TATCATGGTTCGGATTGTACATATATGAATTTTTTT [XGTACX_site7478]” and “AAAAAAGAAATAAGGATACACACTATTGATAAAAGT [CACACA_site272]” are within error of each other in “gcPBM binding intensity (ln)” value: 7.67 ± 0.54 for the first, 7.97 ± 0.66 for the second.

First: CCAGTGTGCACCTTGCGTACATATTAAATTAATTAA [XGTACX_site3729]
Second: TTGTTTCAAAATTAAACACACACAAAAAAAAAAAAA [CACACA_site8856]
The “gcPBM binding intensity (ln)” value of the first is higher: 10.6 ± 0.76 for the first, 7.99 ± 0.64 for the second.

Compared with CTTATAATATTACGGGTGCTATAAATACATTATATT, “TAAATCAAAAACAACAAGTCATATTAAAGATGGTAT [CACACA_negctrl_site1321]” is lower in “gcPBM binding intensity (ln)” value: 9.82 ± 0.23 for the first, 7.68 ± 0.78 for the second.

“AAGGAAAACAGTAGGTGTACCAAACGTCCTAGGAAC [XGTACX_site3659]” and “TATATTTATATCATCACACATTTTTTTTTTCTTTTT [CACACA_site6150]” are within error of each other in “gcPBM binding intensity (ln)” value: 7.71 ± 0.94 for the first, 7.34 ± 0.57 for the second.

“GGATATATAAGATACACACACAAATTAAATATAAAA [CACACA_site7333]” and “TAATATATAAATATATGTACATAATTAATAGGATAT [XGTACX_site237]” are within error of each other in “gcPBM binding intensity (ln)” value: 7.78 ± 0.8 for the first, 8.05 ± 0.37 for the second.

Going from “TATTCCTAATTTAAAAGTACATATATATATATATAT [XGTACX_site3008]” to “TTTTCTTTTTTCTTTTTAACTCTTACATAATAGGTG [CACACA_negctrl_site642]”, the “gcPBM binding intensity (ln)” value falls from 9.28 ± 0.26 to 7.62 ± 0.63.

“AAAAAAAAAAAAATTACACACATACCTATAAGAATA [CACACA_site7097]” and “AATATATGTTAAAATGGTACACAATTATTATATATT [XGTACX_site6407]” are within error of each other in “gcPBM binding intensity (ln)” value: 7.63 ± 0.4 for the first, 7.84 ± 0.23 for the second.

Compared with “AAAAAAAAAAAAAAGAGTACTTTTTTCACATTCATC [XGTACX_site8795]”, “TAAAATGAATAAAATTGTACTTAATAATATTTTAAA [XGTACX_site5532]” is lower in “gcPBM binding intensity (ln)” value: 8.31 ± 0.51 for the first, 7.33 ± 0.19 for the second.

“TTTTTTTTTCTGTATACACACAAAATTTATTTTTTA [CACACA_site2873]” and “TTAATAACGTAATGTAAATGTTTCATACCCTTTTTT [CACACA_negctrl_site988]” are within error of each other in “gcPBM binding intensity (ln)” value: 7.92 ± 0.64 for the first, 7.47 ± 0.61 for the second.

“ATATATATGTATGTATATATATATATATATGTTTGA [CACACA_negctrl_site107]” and “ATAAAATAAAAACATGCACACTTTATTTTTTTTAAG [CACACA_site5545]” are within error of each other in “gcPBM binding intensity (ln)” value: 8.11 ± 0.49 for the first, 8.7 ± 0.51 for the second.

For “AAAGAAGGGGGGGGAAAAAAAAATAAAAGAGGAAAA [XGTACX_negctrl_site92]”, the “gcPBM binding intensity (ln)” value was 9.63 ± 0.45.
